Reference: publication PMC5467238
These are yes or no findings as the source states them, for the method shown. In cells and extracts the contact can be indirect. Some binding calls cover weakened binding; strength is not graded here. For some assays here: Sequences can lack the tags named with a protein. Values belong to the substance of their own block, whether it stands above or below them.

Protein sequences, listed by entry. Tags and fused reporters are not part of them.
UniProt Q04637: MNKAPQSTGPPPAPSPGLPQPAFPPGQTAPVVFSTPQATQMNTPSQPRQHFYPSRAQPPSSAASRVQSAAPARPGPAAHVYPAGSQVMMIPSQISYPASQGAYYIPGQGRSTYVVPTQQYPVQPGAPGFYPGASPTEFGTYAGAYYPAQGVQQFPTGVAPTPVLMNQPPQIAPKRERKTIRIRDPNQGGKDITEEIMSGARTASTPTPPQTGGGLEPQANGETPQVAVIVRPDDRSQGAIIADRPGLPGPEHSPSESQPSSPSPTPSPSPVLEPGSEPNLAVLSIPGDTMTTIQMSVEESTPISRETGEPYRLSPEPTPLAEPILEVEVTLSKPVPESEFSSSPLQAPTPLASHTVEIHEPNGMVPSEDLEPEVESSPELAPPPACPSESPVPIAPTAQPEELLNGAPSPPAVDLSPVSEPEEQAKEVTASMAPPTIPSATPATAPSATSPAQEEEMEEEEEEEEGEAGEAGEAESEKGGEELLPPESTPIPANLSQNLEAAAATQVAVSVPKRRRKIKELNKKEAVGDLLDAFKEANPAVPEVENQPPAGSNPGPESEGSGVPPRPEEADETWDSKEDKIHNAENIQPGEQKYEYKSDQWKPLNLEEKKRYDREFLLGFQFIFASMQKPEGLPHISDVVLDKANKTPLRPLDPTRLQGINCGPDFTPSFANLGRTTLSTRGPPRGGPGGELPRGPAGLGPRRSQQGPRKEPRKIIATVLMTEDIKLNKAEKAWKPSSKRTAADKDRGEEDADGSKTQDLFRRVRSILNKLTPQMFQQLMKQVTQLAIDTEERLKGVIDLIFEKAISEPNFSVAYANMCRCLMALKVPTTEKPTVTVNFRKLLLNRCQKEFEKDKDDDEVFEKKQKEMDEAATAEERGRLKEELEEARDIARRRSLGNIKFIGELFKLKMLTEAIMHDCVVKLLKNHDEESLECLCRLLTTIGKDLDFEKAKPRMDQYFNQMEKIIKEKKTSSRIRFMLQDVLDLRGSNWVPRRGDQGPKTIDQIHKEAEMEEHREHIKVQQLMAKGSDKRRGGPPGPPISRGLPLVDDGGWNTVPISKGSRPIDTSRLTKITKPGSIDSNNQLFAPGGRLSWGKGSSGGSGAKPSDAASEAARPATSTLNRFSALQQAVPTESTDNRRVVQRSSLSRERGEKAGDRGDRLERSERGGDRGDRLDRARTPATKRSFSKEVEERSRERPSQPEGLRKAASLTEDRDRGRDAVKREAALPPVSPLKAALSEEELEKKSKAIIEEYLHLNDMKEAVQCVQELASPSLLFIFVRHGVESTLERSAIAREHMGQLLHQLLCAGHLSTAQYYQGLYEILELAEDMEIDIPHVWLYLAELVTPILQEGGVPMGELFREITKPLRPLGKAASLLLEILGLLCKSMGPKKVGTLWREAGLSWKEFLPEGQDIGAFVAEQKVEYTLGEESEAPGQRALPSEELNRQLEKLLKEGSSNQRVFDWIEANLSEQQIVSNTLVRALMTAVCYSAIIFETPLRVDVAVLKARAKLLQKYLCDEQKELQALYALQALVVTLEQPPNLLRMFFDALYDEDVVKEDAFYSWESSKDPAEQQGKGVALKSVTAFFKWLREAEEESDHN
UniProt P68104: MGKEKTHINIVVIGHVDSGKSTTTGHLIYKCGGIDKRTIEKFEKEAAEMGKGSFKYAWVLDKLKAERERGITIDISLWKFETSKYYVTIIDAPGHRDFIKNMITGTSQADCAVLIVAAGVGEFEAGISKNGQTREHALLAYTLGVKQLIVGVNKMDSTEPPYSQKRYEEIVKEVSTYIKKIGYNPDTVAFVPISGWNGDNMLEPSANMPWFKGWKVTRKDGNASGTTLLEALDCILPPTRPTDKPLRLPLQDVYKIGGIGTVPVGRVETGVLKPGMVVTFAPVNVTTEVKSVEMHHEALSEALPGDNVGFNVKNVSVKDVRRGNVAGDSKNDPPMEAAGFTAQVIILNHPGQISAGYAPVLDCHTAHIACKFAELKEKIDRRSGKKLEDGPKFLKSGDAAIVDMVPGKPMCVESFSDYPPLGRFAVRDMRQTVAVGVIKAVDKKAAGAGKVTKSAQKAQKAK
UniProt Q9UBN7: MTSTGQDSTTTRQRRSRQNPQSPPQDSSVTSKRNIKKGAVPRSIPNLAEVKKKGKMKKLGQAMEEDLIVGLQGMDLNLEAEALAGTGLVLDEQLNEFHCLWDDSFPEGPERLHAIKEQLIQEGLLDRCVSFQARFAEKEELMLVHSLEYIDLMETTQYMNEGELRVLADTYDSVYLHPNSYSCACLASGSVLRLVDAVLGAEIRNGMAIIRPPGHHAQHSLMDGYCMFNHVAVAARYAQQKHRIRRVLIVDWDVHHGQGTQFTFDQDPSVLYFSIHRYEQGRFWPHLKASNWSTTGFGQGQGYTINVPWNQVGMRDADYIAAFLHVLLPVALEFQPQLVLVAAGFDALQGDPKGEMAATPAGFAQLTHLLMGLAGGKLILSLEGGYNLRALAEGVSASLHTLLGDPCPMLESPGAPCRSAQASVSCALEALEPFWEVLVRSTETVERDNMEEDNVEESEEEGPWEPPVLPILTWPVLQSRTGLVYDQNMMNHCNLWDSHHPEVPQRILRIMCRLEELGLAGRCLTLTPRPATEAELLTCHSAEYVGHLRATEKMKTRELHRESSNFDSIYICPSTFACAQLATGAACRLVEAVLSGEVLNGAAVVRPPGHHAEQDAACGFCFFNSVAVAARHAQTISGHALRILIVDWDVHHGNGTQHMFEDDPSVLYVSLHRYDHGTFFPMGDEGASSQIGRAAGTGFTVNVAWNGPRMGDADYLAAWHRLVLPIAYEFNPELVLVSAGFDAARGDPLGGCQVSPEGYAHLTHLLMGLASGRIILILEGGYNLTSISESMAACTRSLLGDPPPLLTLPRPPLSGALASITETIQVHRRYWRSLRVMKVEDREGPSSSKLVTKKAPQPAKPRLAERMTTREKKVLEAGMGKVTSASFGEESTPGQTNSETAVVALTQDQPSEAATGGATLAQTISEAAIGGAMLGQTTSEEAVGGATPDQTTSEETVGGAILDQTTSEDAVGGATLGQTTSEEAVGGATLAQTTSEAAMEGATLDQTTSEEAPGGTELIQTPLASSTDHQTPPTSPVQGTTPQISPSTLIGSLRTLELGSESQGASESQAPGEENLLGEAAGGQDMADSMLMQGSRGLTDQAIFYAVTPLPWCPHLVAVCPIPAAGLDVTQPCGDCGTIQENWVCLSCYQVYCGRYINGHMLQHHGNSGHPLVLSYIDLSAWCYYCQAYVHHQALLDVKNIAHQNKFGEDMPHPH
UniProt P06730: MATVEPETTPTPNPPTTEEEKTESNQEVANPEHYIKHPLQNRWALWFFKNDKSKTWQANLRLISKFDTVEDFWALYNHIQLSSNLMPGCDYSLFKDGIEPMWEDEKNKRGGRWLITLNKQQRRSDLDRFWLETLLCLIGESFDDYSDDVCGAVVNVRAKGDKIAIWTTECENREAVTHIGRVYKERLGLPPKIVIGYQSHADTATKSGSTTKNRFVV
UniProt O95817: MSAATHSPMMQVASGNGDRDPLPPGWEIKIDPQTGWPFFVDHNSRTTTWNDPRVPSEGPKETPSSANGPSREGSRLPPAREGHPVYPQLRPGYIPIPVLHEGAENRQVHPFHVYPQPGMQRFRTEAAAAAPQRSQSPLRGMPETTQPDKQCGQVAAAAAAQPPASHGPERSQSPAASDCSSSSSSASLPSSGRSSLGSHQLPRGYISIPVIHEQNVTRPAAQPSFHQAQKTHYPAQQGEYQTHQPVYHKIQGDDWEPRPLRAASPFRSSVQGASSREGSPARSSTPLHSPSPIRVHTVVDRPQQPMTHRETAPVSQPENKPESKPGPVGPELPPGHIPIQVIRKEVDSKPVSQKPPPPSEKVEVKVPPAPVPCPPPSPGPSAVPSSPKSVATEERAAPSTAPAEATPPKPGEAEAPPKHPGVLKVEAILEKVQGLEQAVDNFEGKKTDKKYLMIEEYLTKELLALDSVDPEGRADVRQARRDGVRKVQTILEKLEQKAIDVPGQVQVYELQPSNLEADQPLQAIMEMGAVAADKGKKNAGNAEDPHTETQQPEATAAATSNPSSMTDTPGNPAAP
UniProt P38919: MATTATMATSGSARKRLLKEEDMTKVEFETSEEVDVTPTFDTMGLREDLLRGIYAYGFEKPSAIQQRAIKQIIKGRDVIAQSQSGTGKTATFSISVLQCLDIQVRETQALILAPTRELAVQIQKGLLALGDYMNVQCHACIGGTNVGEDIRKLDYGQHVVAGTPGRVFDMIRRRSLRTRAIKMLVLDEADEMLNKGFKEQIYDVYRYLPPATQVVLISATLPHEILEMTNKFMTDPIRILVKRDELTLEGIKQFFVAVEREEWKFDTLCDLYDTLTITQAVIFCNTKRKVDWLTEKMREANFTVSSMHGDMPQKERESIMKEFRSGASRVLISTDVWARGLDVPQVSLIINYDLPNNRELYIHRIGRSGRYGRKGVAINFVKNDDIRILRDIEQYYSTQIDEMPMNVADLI
UniProt P55884: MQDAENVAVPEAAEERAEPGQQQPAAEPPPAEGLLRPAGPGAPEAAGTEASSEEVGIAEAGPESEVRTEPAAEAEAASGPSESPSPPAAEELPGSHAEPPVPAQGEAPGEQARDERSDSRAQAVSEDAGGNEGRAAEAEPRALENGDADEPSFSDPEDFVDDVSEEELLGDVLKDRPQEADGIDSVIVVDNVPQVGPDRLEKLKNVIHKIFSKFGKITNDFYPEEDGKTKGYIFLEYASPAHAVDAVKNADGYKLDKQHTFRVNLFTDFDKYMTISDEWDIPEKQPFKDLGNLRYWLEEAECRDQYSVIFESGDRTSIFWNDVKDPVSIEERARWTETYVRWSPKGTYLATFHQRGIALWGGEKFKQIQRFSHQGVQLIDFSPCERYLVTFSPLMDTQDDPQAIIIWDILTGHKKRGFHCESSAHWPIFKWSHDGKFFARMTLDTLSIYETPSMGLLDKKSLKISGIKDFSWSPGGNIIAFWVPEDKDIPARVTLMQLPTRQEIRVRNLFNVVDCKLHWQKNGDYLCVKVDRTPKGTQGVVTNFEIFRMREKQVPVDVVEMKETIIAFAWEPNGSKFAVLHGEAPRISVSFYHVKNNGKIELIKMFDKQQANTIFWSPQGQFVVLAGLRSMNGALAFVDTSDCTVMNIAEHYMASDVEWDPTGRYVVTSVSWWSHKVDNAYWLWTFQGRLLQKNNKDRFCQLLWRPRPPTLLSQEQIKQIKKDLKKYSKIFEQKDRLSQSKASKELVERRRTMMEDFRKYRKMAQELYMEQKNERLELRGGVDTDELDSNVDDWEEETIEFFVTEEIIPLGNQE

How the values were obtained:
[1] = biological target: T1, FLAG-CTIF-WT (UniProt O43310); assay: co-IP; domain mapping: IPs of FLAG-tagged CTIF WT and deletion variants from HEK293T cells; western blotting
T1 sequence: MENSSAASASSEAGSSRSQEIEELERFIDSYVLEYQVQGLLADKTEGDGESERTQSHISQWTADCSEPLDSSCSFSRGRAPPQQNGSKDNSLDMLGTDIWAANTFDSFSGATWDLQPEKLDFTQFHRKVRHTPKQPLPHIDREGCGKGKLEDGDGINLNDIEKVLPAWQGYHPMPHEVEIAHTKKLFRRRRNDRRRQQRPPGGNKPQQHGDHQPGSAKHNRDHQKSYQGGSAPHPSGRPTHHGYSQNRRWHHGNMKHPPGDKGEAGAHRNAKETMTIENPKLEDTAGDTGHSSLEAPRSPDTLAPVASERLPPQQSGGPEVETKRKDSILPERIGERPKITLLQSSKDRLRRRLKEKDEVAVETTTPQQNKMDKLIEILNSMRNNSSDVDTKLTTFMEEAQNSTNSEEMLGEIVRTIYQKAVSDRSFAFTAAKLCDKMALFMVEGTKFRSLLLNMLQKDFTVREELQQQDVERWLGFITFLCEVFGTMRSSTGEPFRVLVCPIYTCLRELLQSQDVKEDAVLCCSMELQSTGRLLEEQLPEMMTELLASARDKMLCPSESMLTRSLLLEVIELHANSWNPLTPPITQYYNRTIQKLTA

[2] = biological target: T2, FLAG-CTIF(12–598) (UniProt O43310); assay: as above
T2 sequence: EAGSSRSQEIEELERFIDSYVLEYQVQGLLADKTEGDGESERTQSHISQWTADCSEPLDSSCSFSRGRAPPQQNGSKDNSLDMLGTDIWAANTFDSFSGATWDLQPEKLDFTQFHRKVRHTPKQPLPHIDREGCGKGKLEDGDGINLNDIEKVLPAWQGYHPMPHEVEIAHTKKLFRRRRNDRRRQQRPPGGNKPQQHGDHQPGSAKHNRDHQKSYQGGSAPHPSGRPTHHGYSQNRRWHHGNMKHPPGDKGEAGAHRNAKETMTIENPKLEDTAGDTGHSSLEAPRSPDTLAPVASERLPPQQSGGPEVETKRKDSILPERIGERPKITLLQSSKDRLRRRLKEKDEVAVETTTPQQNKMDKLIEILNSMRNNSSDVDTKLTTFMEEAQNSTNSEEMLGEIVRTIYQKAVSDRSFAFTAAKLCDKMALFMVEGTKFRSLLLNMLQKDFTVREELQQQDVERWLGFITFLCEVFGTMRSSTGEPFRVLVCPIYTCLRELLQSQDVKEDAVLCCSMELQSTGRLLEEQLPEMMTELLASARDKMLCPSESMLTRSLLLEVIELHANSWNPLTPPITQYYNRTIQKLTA

[3] = biological target: T3, FLAG-CTIF(1–305) (UniProt O43310); assay: as above
T3 sequence: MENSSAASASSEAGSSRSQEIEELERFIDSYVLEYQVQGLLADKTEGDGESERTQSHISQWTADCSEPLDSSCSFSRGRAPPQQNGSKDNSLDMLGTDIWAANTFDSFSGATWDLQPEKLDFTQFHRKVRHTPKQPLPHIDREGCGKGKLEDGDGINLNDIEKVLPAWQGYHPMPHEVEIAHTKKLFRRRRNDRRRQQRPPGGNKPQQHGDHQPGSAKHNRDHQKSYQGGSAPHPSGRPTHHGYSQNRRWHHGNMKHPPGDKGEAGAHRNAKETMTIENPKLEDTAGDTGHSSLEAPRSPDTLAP

[4] = biological target: T4, FLAG-CTIF(54–598) (UniProt O43310); assay: as above
T4 sequence: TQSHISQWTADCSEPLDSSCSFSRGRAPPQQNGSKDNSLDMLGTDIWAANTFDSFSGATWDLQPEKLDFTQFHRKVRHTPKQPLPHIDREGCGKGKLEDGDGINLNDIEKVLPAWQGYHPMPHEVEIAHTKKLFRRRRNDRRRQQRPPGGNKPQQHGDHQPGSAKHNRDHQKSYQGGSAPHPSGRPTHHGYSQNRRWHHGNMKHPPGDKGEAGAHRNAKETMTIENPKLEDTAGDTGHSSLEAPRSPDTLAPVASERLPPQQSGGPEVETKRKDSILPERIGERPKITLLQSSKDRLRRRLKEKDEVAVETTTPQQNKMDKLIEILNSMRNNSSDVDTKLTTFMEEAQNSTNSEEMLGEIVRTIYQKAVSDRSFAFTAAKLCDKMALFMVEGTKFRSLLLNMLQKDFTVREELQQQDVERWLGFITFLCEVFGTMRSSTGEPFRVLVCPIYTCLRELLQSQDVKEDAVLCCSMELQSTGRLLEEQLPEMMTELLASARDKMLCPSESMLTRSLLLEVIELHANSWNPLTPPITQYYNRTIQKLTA

[5] = biological target: T5, FLAG-CTIF(101–598) (UniProt O43310); assay: as above
T5 sequence: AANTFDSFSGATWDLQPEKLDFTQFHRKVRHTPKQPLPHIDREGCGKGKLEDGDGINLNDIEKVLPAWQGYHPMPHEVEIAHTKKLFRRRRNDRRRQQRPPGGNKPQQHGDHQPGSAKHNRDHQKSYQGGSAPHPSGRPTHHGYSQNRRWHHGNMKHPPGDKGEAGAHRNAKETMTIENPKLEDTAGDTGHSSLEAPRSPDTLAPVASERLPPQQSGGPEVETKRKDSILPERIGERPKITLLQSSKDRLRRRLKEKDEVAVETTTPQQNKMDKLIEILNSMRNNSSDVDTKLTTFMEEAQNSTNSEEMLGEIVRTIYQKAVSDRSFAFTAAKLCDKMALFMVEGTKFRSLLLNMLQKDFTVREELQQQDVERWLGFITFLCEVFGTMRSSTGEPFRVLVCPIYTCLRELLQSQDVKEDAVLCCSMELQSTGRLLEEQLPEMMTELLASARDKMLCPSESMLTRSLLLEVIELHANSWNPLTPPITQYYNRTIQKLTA

[6] = biological target: T6, GST-tagged CTIF (recombinant) (UniProt O43310); assay: pull-down; in vitro GST pull-down with recombinant proteins expressed in E. coli; GST-tagged protein with His-eEF1A1 or His-DCTN1 in 10 mM Tris-HCl pH 8.0, 150 mM NaCl, 1% glycerol, 0.001% BSA, 0.1% Triton X-100, 4 °C, 1 h; Glutathione Sepharose 4B; western blotting
T6 sequence: T1 sequence

[7] = biological target: T1, FLAG-CTIF-WT; assay: co-IP; IP of FLAG-CTIF with FLAG antibody-conjugated agarose beads; cells untreated or treated with MG132; extracts treated with RNase A; NET-2 buffer, 4 °C; western blotting
[8] = biological target: T7, CBC-dependent translation (CT) initiation factor (CTIF), endogenous (human (endogenous in HEK293T)) (UniProt O43310); assay: co-IP; IP of endogenous CTIF with α-CTIF antibody (control rabbit IgG) from extracts of HEK293T cells untreated or treated with MG132 for 12 h; extracts treated with RNase A; western blotting
T7 sequence: T1 sequence

[9] = biological target: T1, FLAG-CTIF-WT; assay: co-IP; IP of FLAG-CTIF; cells untreated or treated with MG132; endogenous BAG3 detected
[10] = biological target: T7, CBC-dependent translation (CT) initiation factor (CTIF), endogenous (human (endogenous in HEK293T)); assay: co-IP; IP of endogenous CTIF from extracts of HEK293T cells depleted of eEF1A1 or DCTN1 by siRNA and treated with MG132 for 12 h; extracts treated with RNase A
[11] = biological target: T8, MYC-CTIF(12–53)-GST (UniProt O43310); assay: pull-down; GST pull-down of MYC-CTIF(1–53)-GST, MYC-CTIF(12–53)-GST or MYC-GST expressed from pCMV-Myc plasmids; DCTN1 and eEF1A1 detected
T8 sequence: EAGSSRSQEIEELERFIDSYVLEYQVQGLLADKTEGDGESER

[12] = biological target: T9, MYC-CTIF(1–53)-GST (UniProt O43310); assay: as above
T9 sequence: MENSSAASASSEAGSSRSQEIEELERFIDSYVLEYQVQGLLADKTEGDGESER

[13] = biological target: eIF4GI (human (endogenous in the human cell lines used)) (UniProt Q04637); assay: co-IP; IP of eIF4GI (Supplementary Fig. 5c); western blotting

binding [1]: binds
binding [2]: binds
binding [3]: no binding
binding [4]: binds
binding [5]: binds
Substance: stem-loop–binding protein (SLBP), endogenous (from UniProt Q14493 1-270)

binding [6]: binds
Substance: His-eEF1A1 (recombinant human eukaryotic translation elongation factor 1 alpha 1) (from UniProt P68104 1-462)

binding [7]: binds
Substance: Histone deacetylase 6 (HDAC6), endogenous (from UniProt Q9UBN7 1-1215)

binding [8]: no binding
binding [7]: no binding
Substance: eukaryotic translation initiation factor 4E (eIF4E), endogenous (from UniProt P06730 1-217)

binding [9]: binds
Substance: BCL2-associated athanogene 3 (BAG3), endogenous (from UniProt O95817 1-575)

binding [8]: binds
binding [1]: binds
binding [2]: binds
binding [3]: binds
binding [4]: no binding
binding [5]: no binding
binding [11]: binds
binding [12]: binds
binding [7]: binds
Substance: eukaryotic translation elongation factor 1 alpha 1 (eEF1A1), endogenous (from UniProt P68104 1-462)
binding [10]: no binding (condition: cells depleted of DCTN1 by siRNA)

binding [8]: binds
binding [7]: binds
Substance: eIF4AIII, endogenous (from UniProt P38919 1-411)

binding [8]: binds
binding [10]: binds
binding [7]: binds
Substance: eIF3b, endogenous (from UniProt P55884 1-814)

binding [13]: binds weakly
Substance: dynactin 1 (DCTN1), endogenous (from UniProt Q14203-1 1-1278)
